Data on 22 compounds can be found in patent US11559518B2, “Endoplasmic reticulum stress regulator comprising benzothiazoimidazolyl compound” (ER Stress Research Institute, Inc., priority 2017, dated 2023).

For the first assay, the system named is cell death caused by Tunicamycin. As to the kind of experiment: Cytoprotective effect: suppression of cell death caused by Tunicamycin (viable cell count). To be noted: read-out: IC50 for suppressing cell death caused by Tunicamycin. Here is the method: The final concentration of each test compound in the compound evaluation solution was varied and viable cell count was measured to determine the 50% inhibitory concentration (IC50) for suppressing cell death caused by Tunicamycin.
As to `O=C([O-])CCCc1ccccc1.[Na+]` [4PBA, Sodium 4-phenylbutyrate, reference compound], the IC50 was 5400 µM.

For `COc1ccc(-c2cn3c(n2)sc2ccccc23)cc1` [Compound No. 17], the IC50 amounted to 0.7 µM.

Consider `C[C@H](CCC(=O)NCCS(=O)(=O)O)[C@H]1CC[C@H]2[C@@H]3[C@@H](O)C[C@@H]4C[C@H](O)CC[C@]4(C)[C@H]3CC[C@]12C` [TUDCA, Tauroursodeoxycholic Acid, reference compound], for which the IC50 was found to be 2100 µM.

`COC(=O)c1ccc2c(c1)sc1nc(-c3ccccc3)cn12` [compound 2]: the IC50 was determined as 0.34 µM.

Regarding `Clc1ccc(-c2cn3c(n2)sc2ccccc23)cc1` [compound 3], the IC50 amounted to 0.43 µM.

On to `CCc1ccc(-c2cn3c(n2)sc2cc(C(=O)OC)ccc23)cc1` [compound 4], for which the IC50 came to 0.41 µM.

On to `Fc1ccccc1-c1cn2c(n1)sc1ccccc12` [compound 5], for which the IC50 was determined as 3.7 µM.

On to `CCN(CC)CCCNC(=O)c1ccc2c(c1)sc1nc(-c3ccc(OC)cc3)cn12` [compound 6], for which the IC50 came to 6.7 µM.

For the compound `COc1cccc(-c2cn3c(n2)sc2cc(C(=O)NCCCN4CCOCC4)ccc23)c1` [compound 8], the IC50 was determined as 1.6 µM.

Consider `CCN(CC)CCCNC(=O)c1ccc2c(c1)sc1nc(-c3ccccc3)cn12` [compound 9], for which the IC50 amounted to 7.4 µM.

As for `O=C(NCCCN1CCCCC1)c1ccc2c(c1)sc1nc(-c3ccccc3)cn12` [compound 10], the IC50 worked out at 9.2 µM.

As to `CCOC(=O)C1CCN(C(=O)c2ccc3c(c2)sc2nc(-c4ccc(OC)cc4)cn23)CC1` [compound 13], the IC50 amounted to 5 µM.

For `COC(=O)c1ccc2c(c1)sc1nc(-c3cccc(OC)c3)cn12` [compound 14], the IC50 was 0.01 µM.

`COC(=O)c1ccc2c(c1)sc1nc(-c3ccc(Cl)cc3)cn12` [compound 15]: the IC50 turned out to be 0.01 µM.

For `Cc1ccc2c(c1)sc1nc(-c3ccccc3)cn12` [compound 16], the IC50 worked out at 1.2 µM.

Regarding `FC(F)Oc1ccc(-c2cn3c(n2)sc2ccccc23)cc1` [compound 18], the IC50 turned out to be 2.6 µM.

Turning to `CCN(CC)CCCNC(=O)c1ccc2c(c1)sc1nc(-c3ccc(F)cc3)cn12` [compound 19], the IC50 was found to be 8 µM.

`CCOc1ccc(-c2cn3c(n2)sc2cc(C(=O)NCCCN4CCCC4=O)ccc23)cc1` [compound 20]: the IC50 worked out at 7.8 µM.

On to `O=C(O)c1ccc2c(c1)sc1nc(-c3ccccc3)cn12` [compound 23], for which the IC50 stood at 12 µM.

Take `NC(=O)c1cc(-c2cn3c(n2)sc2ccccc23)ccc1O` [compound 24]: the IC50 turned out to be 7.5 µM.

For the compound `CS(=O)(=O)c1ccc2c(c1)sc1nc(-c3ccc(Cl)cc3)cn12` [compound 25], the IC50 is 0.08 µM.

The assay is the same for the next values; noted with them: read-out: IC50 for suppressing cell death caused by Tunicamycin; viable cell count; coexistence of Tunicamycin.
Turning to `CCCC(=O)NCCc1csc(-c2ccc(Cl)cc2)n1` [Azoramide, reference compound], the IC50 amounted to 86 µM.
